Molecules are shown by their SMILES. Among all 150,000 compounds or so, about 540 (0.36%) showed an effect of 50% or more. This is one part of the list.

The assay deals with Plasmodium falciparum. Nature of the assay: Primary screen in NF54 nanoGlo assay, in single point, at 2uM, 72h; a lower Z score goes with more inhibition. Format: functional, Erythrocyte. Conditions: timepoint 72 hour.
Regarding `COC1(C(=O)N2CC[C@H](c3ccc(C)cc3C)C2)CCOCC1`, the “% Inhibition” value is reported as -7% and the Z score stood at 1.1.
In the case of `COc1cccc(-c2cc3n(n2)CCCN(C(=O)c2ccsc2)C3)c1`, the “% Inhibition” value is on record as -3% and the Z score was found to be 0.28.
On to `Cc1cnc(Cn2ccnc2[C@H]2CCOC2)cn1`, for which the “% Inhibition” value is on record as -5% and the Z score came to 0.46.
The corresponding values for `CCc1cnccc1C(=O)NC1CCN(CC2CCCO2)CC1C` (stereo unspecified) are -3% and 0.38.
In the same order, the values of `CCOc1ccc(N(Cc2ccccc2F)S(=O)(=O)c2ccc3nnc(C)n3c2)cc1` are 40% and -5.82.
In the same order, the values of `COc1ccc([C@@H](NCc2cnn(C)c2)C(F)(F)F)cc1F` are -7% and 1.02.
In the case of `COc1ccccc1-c1nc(NCCc2ccccc2)nc2nn(-c3ccc(F)cc3)c(N)c12`, the “% Inhibition” value is 4% and the Z score is reported as -0.63.
The corresponding values for `Cc1ccc(CN2CCC(O)(C(F)(F)F)CC2)nc1` are 6% and -0.84.
Regarding `O=C(CN1CCCC1)N1N=C(c2cccc(F)c2)C[C@H]1c1ccc2c(c1)OCO2`, the “% Inhibition” value was -3% and the Z score came out at 0.51.
Consider `Cc1ccc(-n2nc(C)c(Cc3nc(CN4C(=O)NC(C)(C)C4=O)no3)c2C)cc1Cl`, for which the “% Inhibition” value was -4% and the Z score is listed as 0.57.
In the same order, the values of `CCCN(CC(=O)N(Cc1ccccc1)Cc1ccc(C)o1)C(=O)COCc1ccccc1` are -4% and 0.6.
As for `CC(C)N1CCC(N2C(=O)[C@@H]3CCCN3C2=O)C1=O` (stereo partly specified), the “% Inhibition” value was 2% and the Z score is reported as -0.18.
Take `C[C@H]1CN(C(=O)NCc2ccc(Cl)cn2)CCC1(F)F`: the “% Inhibition” value is -12% and the Z score is 2.26.
The corresponding values for `CCOC(=O)c1cc2n(n1)C[C@@](C)(C(=O)NC1CCCCCC1)N(Cc1ccc(OCC)cc1)C2=O` are 17% and -1.94.
On to `CC(C)[C@@H]1CC[C@@H](C)C[C@H]1OC(=O)N[C@H](C)c1ccccc1`, for which the “% Inhibition” value is recorded as -39% and the Z score is 4.53.
As to `O=C(O)C[C@@H]1CCN(C(=O)C2CCCCC2)C[C@@H]1CCN1CCN(c2ccccc2)CC1`, the “% Inhibition” value is on record as -2% and the Z score was found to be 0.36.
Take `C[C@@H]1C(=O)Nc2ccc(S(=O)(=O)Nc3cccc(C(=O)NC4CC4)c3)cc21`: the “% Inhibition” value is listed as -12% and the Z score is given as 1.44.
In the same order, the values of `O=C1CN(CC(=O)N[C@@H](Cc2ccccc2Cl)c2ccccc2)C(=O)N1` are -3% and 0.34.
The corresponding values for `COC(=O)c1nn(C)cc1-c1ccc(C(=O)N(C)Cc2c(C)noc2C)cc1` are -5% and 0.98.
In the same order, the values of `CC(C)N1CCN(C(=O)Nc2ccc(-n3ncn(C)c3=O)cc2)CC1` are -12% and 1.51.
In the case of `C=C[C@H](C)NC(=O)N(C)Cc1cc(F)c(F)c(F)c1`, the “% Inhibition” value is given as -9% and the Z score amounted to 0.89.
The corresponding values for `CN1C[C@@H]2CCC[C@H]1CN(C(=O)CCCc1ccccc1)C2` are -7% and 1.41.
The corresponding values for `Cc1ccccc1-c1cnc(CN2CCC[C@@H]3C[C@@]32C(=O)O)o1` are -5% and 1.16.
The corresponding values for `Fc1cccc2c1OCC[C@@H]2NCc1ccncc1` are -5% and 0.61.
On to `CCCN(Cc1cccn1C)C[C@H](O)COC(C)(C)C`, for which the “% Inhibition” value was -14% and the Z score was 2.47.
As to `NC(=O)Cn1ccnc1C1CCN(S(=O)(=O)N2CCCCCC2)CC1`, the “% Inhibition” value is -8% and the Z score is 0.87.
The corresponding values for `O=C(CCn1cncn1)NC1CCCCC1Oc1ccccc1` (stereo unspecified) are -5% and 0.72.
The corresponding values for `Cc1nc(NCc2ccc3nsnc3c2)c2cccnc2n1` are -11% and 1.11.
In the same order, the values of `CC(C)c1ncsc1C(=O)NCc1ccn(C)n1` are -7% and 1.15.
As to `CC(C)(F)c1nc(-c2cscn2)no1`, the “% Inhibition” value is -3% and the Z score is 0.29.
In the same order, the values of `O=C(CO[C@H]1CCCc2c[nH]nc21)NC(C1CC1)C1CC1` are 32% and -4.57.
In the same order, the values of `Cc1nn(C)cc1CNc1ccc(-c2ccccc2)cn1` are 3% and -0.4.
The corresponding values for `CN(C)S(=O)(=O)N1CCC(CNC(=O)Nc2ccccc2)CC1` are -6% and 0.68.
In the case of `CCc1nc(C)c(C(=O)N2CCCn3nc(-c4ccccc4)nc32)o1`, the “% Inhibition” value is -1% and the Z score stood at 0.16.
For the compound `Cc1nc(C)c(CC(=O)N[C@H]2CC(C)(C)Cc3c2cnn3-c2ccccc2C)s1`, the “% Inhibition” value is recorded as -5% and the Z score came to 1.05.
In the same order, the values of `Cc1ccc(CNC(=O)N2CCC(n3c(C)cnc3C3CC3)CC2)cc1` are 10% and -1.3.
In the same order, the values of `Cn1cc(CN2CCC[C@@H]2Cn2cncn2)cn1` are -11% and 1.15.
In the case of `COc1cccc([C@H]2C[C@H](NC(=O)N[C@H]3CCO[C@@H]3c3cnn(C(C)C)c3)C2)c1`, the “% Inhibition” value was 10% and the Z score is listed as -1.68.
With `C[C@@](CO)(NCc1ccc(S(N)(=O)=O)o1)C1CCCCC1`, the “% Inhibition” value is 16% and the Z score is given as -2.09.
On to `Clc1ccc(-c2nnc(-c3cccnc3NCCN3CCOCC3)o2)cc1`, for which the “% Inhibition” value was -17% and the Z score is given as 2.69.
In the same order, the values of `O=C(Cn1ncn2nccc2c1=O)Nc1cc(Cl)cc(Cl)c1` are -3% and 0.43.
For the compound `O=C(NCc1ccc(N2CCCC2=O)cc1)NCc1ccc(N2CCCC2=O)cc1`, the “% Inhibition” value is given as 6% and the Z score is on record as -1.08.
The corresponding values for `CCc1cccc2c(CCNC(=O)NCc3cnn(C)c3)c[nH]c12` are -8% and 1.35.
The corresponding values for `Cc1ccc(-c2nc(=O)[nH]c3sc(N)nc23)cc1` are -36% and 4.22.
The corresponding values for `CC1CC(C)CC(NC(=O)NCc2ncnn2C)C1` (stereo unspecified) are 1% and -0.09.
Turning to `CCc1ccccc1N(C)S(=O)(=O)c1cc(-c2nc(C)c(C)s2)sc1C`, the “% Inhibition” value worked out at 7% and the Z score was -0.9.
In the case of `Cc1nnc(N2CC[C@H](C(=O)NCc3ccccc3)C2)o1`, the “% Inhibition” value is listed as -7% and the Z score is on record as 1.16.
For `CN(C(=O)c1ccccn1)[C@H]1CCS(=O)(=O)C1`, the “% Inhibition” value is -15% and the Z score was found to be 2.85.
Regarding `COc1ccc(S(=O)(=O)c2csc3c2NC(=O)C[C@@H]3c2c(F)cccc2F)cc1`, the “% Inhibition” value was -9% and the Z score was 0.93.
On to `c1cc(-c2nc3c(c(N4CCOCC4)n2)CCC3)ccn1`, for which the “% Inhibition” value was -11% and the Z score turned out to be 1.73.
As for `Cc1ccnc(N2CCC[C@@]3(CCC(=O)N(Cc4cccnc4)C3)C2)c1`, the “% Inhibition” value is on record as 2% and the Z score is on record as -0.24.
With `Cn1nc(-c2ccccc2F)c2cc(C(=O)N3CCN(c4cccc(C(F)(F)F)c4)CC3)sc21`, the “% Inhibition” value was -12% and the Z score worked out at 1.52.
In the same order, the values of `CCOC[C@H]1CCCN1C(=O)Cn1cccc(OC)c1=O` are -16% and 2.31.

In general, % Inhibition refers to the relative decrease from the control value, in per cent.

Values taken from ChEMBL document CHEMBL4888484, “Replenishing the malaria drug discovery pipeline: Screening and hit evaluation of the MMV Hit Generation Library 1 (HGL1) against asexual blood stage Plasmodium falciparum ,using a nano luciferase reporter read-out” (2022).
